Test results published in the supplement of paper PMC12423691.
The other results are listed elsewhere or left out. Binding of human transcription factors and regulators to the viral nucleoprotein by AlphaScreen, crude cell-free proteins, amounts not normalised, one pass. Fold of the Venus control; higher = more signal. No active / inactive call. Single-pass screen; sequences are the whole Swiss-Prot entries looked up by name.

B1: NFYC, Q13952 (protein)
chain: MSTEGGFGGTSSSDAQQSLQSFWPRVMEEIRNLTVKDFRVQELPLARIKKIMKLDEDVKMISAEAPVLFAKAAQIFITELTLRAWIHTEDNKRRTLQRNDIAMAITKFDQFDFLIDIVPRDELKPPKRQEEVRQSVTPAEPVQYYFTLAQQPTAVQVQGQQQGQQTTSSTTTIQPGQIIIAQPQQGQTTPVTMQVGEGQQVQIVQAQPQGQAQQAQSGTGQTMQVMQQIITNTGEIQQIPVQLNAGQLQYIRLAQPVSGTQVVQGQIQTLATNAQQGQRNASQGKPRRCLKETLQITQTEVQQGQQQFSQFTDGQRNSVQQARVSELTGEAEPREVKATGNSTPCTSSLPTTHPPSHRAGASCVCCSQPQQSSTSPPPSDALQWVVVEVSGTPNQLETHRELHAPLPGMTSLSPLHPSQQLYQIQQVTMPAGQDLAQPMFIQSANQPSDGQAPQVTGD
B2: TCF7L2, Q9NQB0 (protein)
chain: MPQLNGGGGDDLGANDELISFKDEGEQEEKSSENSSAERDLADVKSSLVNESETNQNSSSDSEAERRPPPRSESFRDKSRESLEEAAKRQDGGLFKGPPYPGYPFIMIPDLTSPYLPNGSLSPTARTLHFQSGSTHYSAYKTIEHQIAVQYLQMKWPLLDVQAGSLQSRQALKDARSPSPAHIVSNKVPVVQHPHHVHPLTPLITYSNEHFTPGNPPPHLPADVDPKTGIPRPPHPPDISPYYPLSPGTVGQIPHPLGWLVPQQGQPVYPITTGGFRHPYPTALTVNASMSRFPPHMVPPHHTLHTTGIPHPAIVTPTVKQESSQSDVGSLHSSKHQDSKKEEEKKKPHIKKPLNAFMLYMKEMRAKVVAECTLKESAAINQILGRRWHALSREEQAKYYELARKERQLHMQLYPGWSARDNYGKKKKRKRDKQPGETNEHSECFLNPCLSLPPITDLSAPKKCRARFGLDQQNNWCGPCRRKKKCVRYIQGEGSCLSPPSSDGSLLDSPPPSPNLLGSPPRDAKSQTEQTQPLSLSLKPDPLAHLSMMPPPPALLLAEATHKASALCPNGALDLPPAALQPAAPSSSIAQPSTSSLHSHSSLAGTQPQPLSLVTKSLE
B3: MESP1, Q9BRJ9 (protein)
chain: MAQPLCPPLSESWMLSAAWGPTRRPPPSDKDCGRSLVSSPDSWGSTPADSPVASPARPGTLRDPRAPSVGRRGARSSRLGSGQRQSASEREKLRMRTLARALHELRRFLPPSVAPAGQSLTKIETLRLAIRYIGHLSAVLGLSEESLQRRCRQRGDAGSPRGCPLCPDDCPAQMQTRTQAEGQGQGRGLGLVSAVRAGASWGSPPACPGARAAPEPRDPPALFAEAACPEGQAMEPSPPSPLLPGDVLALLETWMPLSPLEWLPEEPK
B4: RORC, P51449 (protein)
chain: MDRAPQRQHRASRELLAAKKTHTSQIEVIPCKICGDKSSGIHYGVITCEGCKGFFRRSQRCNAAYSCTRQQNCPIDRTSRNRCQHCRLQKCLALGMSRDAVKFGRMSKKQRDSLHAEVQKQLQQRQQQQQEPVVKTPPAGAQGADTLTYTLGLPDGQLPLGSSPDLPEASACPPGLLKASGSGPSYSNNLAKAGLNGASCHLEYSPERGKAEGRESFYSTGSQLTPDRCGLRFEEHRHPGLGELGQGPDSYGSPSFRSTPEAPYASLTEIEHLVQSVCKSYRETCQLRLEDLLRQRSNIFSREEVTGYQRKSMWEMWERCAHHLTEAIQYVVEFAKRLSGFMELCQNDQIVLLKAGAMEVVLVRMCRAYNADNRTVFFEGKYGGMELFRALGCSELISSIFDFSHSLSALHFSEDEIALYTALVLINAHRPGLQEKRKVEQLQYNLELAFHHHLCKTHRQSILAKLPPKGKLRSLCSQHVERLQIFQHLHPIVVQAAFPPLYKELFSTETESPVGLSK
B5: BCL11A, Q9H165 (protein)
chain: MSRRKQGKPQHLSKREFSPEPLEAILTDDEPDHGPLGAPEGDHDLLTCGQCQMNFPLGDILIFIEHKRKQCNGSLCLEKAVDKPPSPSPIEMKKASNPVEVGIQVTPEDDDCLSTSSRGICPKQEHIADKLLHWRGLSSPRSAHGALIPTPGMSAEYAPQGICKDEPSSYTCTTCKQPFTSAWFLLQHAQNTHGLRIYLESEHGSPLTPRVGIPSGLGAECPSQPPLHGIHIADNNPFNLLRIPGSVSREASGLAEGRFPPTPPLFSPPPRHHLDPHRIERLGAEEMALATHHPSAFDRVLRLNPMAMEPPAMDFSRRLRELAGNTSSPPLSPGRPSPMQRLLQPFQPGSKPPFLATPPLPPLQSAPPPSQPPVKSKSCEFCGKTFKFQSNLVVHRRSHTGEKPYKCNLCDHACTQASKLKRHMKTHMHKSSPMTVKSDDGLSTASSPEPGTSDLVGSASSALKSVVAKFKSENDPNLIPENGDEEEEEDDEEEEEEEEEEEEELTESERVDYGFGLSLEAARHHENSSRGAVVGVGDESRALPDVMQGMVLSSMQHFSEAFHQVLGEKHKRGHLAEAEGHRDTCDEDSVAGESDRIDDGTVNGRGCSPGESASGGLSKKLLLGSPSSLSPFSKRIKLEKEFDLPPAAMPNTENVYSQWLAGYAASRQLKDPFLSFGDSRQSPFASSSEHSSENGSLRFSTPPGELDGGISGRSGTGSGGSTPHISGPGPGRPSSKEGRRSDTCEYCGKVFKNCSNLTVHRRSHTGERPYKCELCNYACAQSSKLTRHMKTHGQVGKDVYKCEICKMPFSVYSTLEKHMKKWHSDRVLNNDIKTE
B6: HAND1, O96004 (protein)
chain: MNLVGSYAHHHHHHHPHPAHPMLHEPFLFGPASRCHQERPYFQSWLLSPADAAPDFPAGGPPPAAAAAATAYGPDARPGQSPGRLEALGGRLGRRKGSGPKKERRRTESINSAFAELRECIPNVPADTKLSKIKTLRLATSYIAYLMDVLAKDAQSGDPEAFKAELKKADGGRESKRKRELQQHEGFPPALGPVEKRIKGRTGWPQQVWALELNQ
B7: PEG3, Q9GZU2 (protein)
chain: MLPPKHLSATKPKKSWAPNLYELDSDLTKEPDVIIGEGPTDSEFFHQRFRNLIYVEFVGPRKTLIKLRNLCLDWLQPETRTKEEIIELLVLEQYLTIIPEKLKPWVRAKKPENCEKLVTLLENYKEMYQPEDDNNSDVTSDDDMTRNRRESSPPHSVHSFSDRDWDRRGRSRDMEPRDRWSHTRNPRSRMPPRDLSLPVVAKTSFEMDREDDRDSRAYESRSQDAESYQNVVDLAEDRKPHNTIQDNMENYRKLLSLVQLAEDDGHSHMTQGHSSRSKRSAYPSTSRGLKTMPEAKKSTHRRGICEDESSHGVIMEKFIKDVSRSSKSGRARESSDRSQRFPRMSDDNWKDISLNKRESVIQQRVYEGNAFRGGFRFNSTLVSRKRVLERKRRYHFDTDGKGSIHDQKGCPRKKPFECGSEMRKAMSVSSLSSLSSPSFTESQPIDFGAMPYVCDECGRSFSVISEFVEHQIMHTRENLYEYGESFIHSVAVSEVQKSQVGGKRFECKDCGETFNKSAALAEHRKIHARGYLVECKNQECEEAFMPSPTFSELQKIYGKDKFYECRVCKETFLHSSALIEHQKIHFGDDKDNEREHERERERERGETFRPSPALNEFQKMYGKEKMYECKVCGETFLHSSSLKEHQKIHTRGNPFENKGKVCEETFIPGQSLKRRQKTYNKEKLCDFTDGRDAFMQSSELSEHQKIHSRKNLFEGRGYEKSVIHSGPFTESQKSHTITRPLESDEDEKAFTISSNPYENQKIPTKENVYEAKSYERSVIHSLASVEAQKSHSVAGPSKPKVMAESTIQSFDAINHQRVRAGGNTSEGREYSRSVIHSLVASKPPRSHNGNELVESNEKGESSIYISDLNDKRQKIPARENPCEGGSKNRNYEDSVIQSVFRAKPQKSVPGEGSGEFKKDGEFSVPSSNVREYQKARAKKKYIEHRSNETSVIHSLPFGEQTFRPRGMLYECQECGECFAHSSDLTEHQKIHDREKPSGSRNYEWSVIRSLAPTDPQTSYAQEQYAKEQARNKCKDFRQFFATSEDLNTNQKIYDQEKSHGEESQGENTDGEETHSEETHGQETIEDPVIQGSDMEDPQKDDPDDKIYECEDCGLGFVDLTDLTDHQKVHSRKCLVDSREYTHSVIHTHSISEYQRDYTGEQLYECPKCGESFIHSSFLFEHQRIHEQDQLYSMKGCDDGFIALLPMKPRRNRAAERNPALAGSAIRCLLCGQGFIHSSALNEHMRLHREDDLLEQSQMAEEAIIPGLALTEFQRSQTEERLFECAVCGESFVNPAELADHVTVHKNEPYEYGSSYTHTSFLTEPLKGAIPFYECKDCGKSFIHSTVLTKHKELHLEEEEEDEAAAAAAAAAQEVEANVHVPQVVLRIQGLNVEAAEPEVEAAEPEVEAAEPEVEAAEPNGEAEGPDGEAAEPIGEAGQPNGEAEQPNGDADEPDGAGIEDPEERAEEPEGKAEEPEGDADEPDGVGIEDPEEGEDQEIQVEEPYYDCHECTETFTSSTAFSEHLKTHASMIIFEPANAFGECSGYIERASTSTGGANQADEKYFKCDVCGQLFNDRLSLARHQNTHTG

These binders were tested against nucleoprotein N of Crimean-Congo hemorrhagic fever virus (assay: AlphaScreen luminescence signal relative to Venus negative control (fold); higher = stronger binding to CCHFV N).
Experimental: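 AlphaScreen binding of cell-free made, FLAG-GST-tagged human transcription factors and regulators (crude translation products) to biotinylated N protein; signal as fold of the FLAG-GST-Venus control. One pass.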

Row | Binder | AlphaScreen luminescence signal
1 | B1 | 1.53
2 | B2 | 2
3 | B3 | 2.74
4 | B4 | 4.42
5 | B5 | 3.07
6 | B6 | 2.79
7 | B7 | 1.72
